Source: PMC5687670
These are yes or no findings as the source states them, for the method shown. In cells and extracts the contact can be indirect. Some binding calls cover weakened binding; strength is not graded here. One block for each substance: values may come before it.

The chains behind the UniProt entries cited, without tags or fusion partners.
UniProt P42771: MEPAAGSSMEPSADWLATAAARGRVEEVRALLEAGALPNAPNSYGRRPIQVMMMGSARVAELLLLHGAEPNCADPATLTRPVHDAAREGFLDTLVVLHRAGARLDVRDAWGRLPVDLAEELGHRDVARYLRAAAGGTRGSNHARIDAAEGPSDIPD
UniProt P08047: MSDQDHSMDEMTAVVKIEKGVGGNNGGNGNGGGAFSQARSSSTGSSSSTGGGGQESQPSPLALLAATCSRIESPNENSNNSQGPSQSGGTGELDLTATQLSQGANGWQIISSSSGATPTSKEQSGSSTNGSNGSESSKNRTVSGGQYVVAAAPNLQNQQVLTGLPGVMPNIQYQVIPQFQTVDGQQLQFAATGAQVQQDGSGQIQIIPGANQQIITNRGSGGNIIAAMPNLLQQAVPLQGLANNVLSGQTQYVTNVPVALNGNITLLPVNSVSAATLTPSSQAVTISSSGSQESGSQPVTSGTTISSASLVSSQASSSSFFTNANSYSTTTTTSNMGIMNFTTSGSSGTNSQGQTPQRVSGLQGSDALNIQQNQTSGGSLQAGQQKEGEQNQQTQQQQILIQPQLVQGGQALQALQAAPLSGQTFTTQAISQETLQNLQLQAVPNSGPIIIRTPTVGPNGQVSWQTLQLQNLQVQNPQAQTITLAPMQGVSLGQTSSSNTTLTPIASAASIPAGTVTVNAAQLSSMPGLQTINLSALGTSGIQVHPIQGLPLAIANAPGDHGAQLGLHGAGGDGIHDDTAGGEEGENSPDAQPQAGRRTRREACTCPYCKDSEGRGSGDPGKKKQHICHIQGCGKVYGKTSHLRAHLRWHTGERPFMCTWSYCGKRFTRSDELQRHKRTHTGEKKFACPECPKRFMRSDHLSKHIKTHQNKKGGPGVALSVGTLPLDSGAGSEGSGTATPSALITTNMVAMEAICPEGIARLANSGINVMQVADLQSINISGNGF
UniProt O00506: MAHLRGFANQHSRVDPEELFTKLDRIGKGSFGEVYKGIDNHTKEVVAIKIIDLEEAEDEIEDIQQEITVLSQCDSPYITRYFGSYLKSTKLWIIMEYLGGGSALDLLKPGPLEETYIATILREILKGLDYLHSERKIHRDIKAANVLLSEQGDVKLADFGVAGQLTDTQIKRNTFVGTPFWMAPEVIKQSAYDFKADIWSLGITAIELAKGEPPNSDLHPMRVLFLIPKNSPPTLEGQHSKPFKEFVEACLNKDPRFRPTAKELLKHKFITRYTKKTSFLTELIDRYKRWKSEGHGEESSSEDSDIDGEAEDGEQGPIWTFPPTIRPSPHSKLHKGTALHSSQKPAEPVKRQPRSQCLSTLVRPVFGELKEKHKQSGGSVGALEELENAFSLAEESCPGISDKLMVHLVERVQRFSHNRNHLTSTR

Experiments:
[1] = molecular target: p16^INK4a expressed in COS cells (pcDNA3.1-p16^INK4a) (UniProt P42771); test: co-IP; COS-7 cells transfected with p16^INK4a and V5-CDK4 and/or V5-hYSK1 (hypoxia, 1% O2; Figure 4d) or with p16^INK4a, V5-hYSK1 or HA-SP-1 (Figure 5c); IP with anti-p16^INK4a, immunoblot; NET-NL lysis buffer, 150 mM NaCl, 0.01% NP-40, overnight at 4 °C
[2] = molecular target: p16^INK4a expressed in COS cells (pcDNA3.1-p16^INK4a) (UniProt P42771); test: co-IP; COS-1 cells transfected with combinations of p16^INK4a, pcDNA3.1-V5-hYSK1 and pcDNA3.1-V5-CDK4; IP with anti-p16^INK4a or anti-hYSK1, blot with anti-V5 or anti-p16^INK4a
HA-SP-1 = HA-SP-1 (UniProt P08047); test: co-IP; told only in the discussion, no figure: cells transfected with either V5-hYSK1 or HA-SP-1; IP with anti-hYSK1 or anti-SP-1
[3] = molecular target: endogenous p16^INK4a (human (endogenous in SK-MEL-28)) (UniProt P42771); test: co-IP; endogenous proteins, cells under hypoxia (1% O2); IP with anti-p16^INK4a, blot with anti-hYSK1 and anti-p16
[4] = molecular target: GST-p16^INK4a (full length) (UniProt P42771); test: pull-down; GST or GST fusion proteins on glutathione-Sepharose beads incubated 4 h at 4 °C with ^35S-Met-labeled in vitro translated proteins; washed thrice; SDS-PAGE, autoradiography; only the target purified
[5] = molecular target: V5-hYSK1 expressed in COS cells (pcDNA3.1-V5-hYSK1) (human) (UniProt O00506); test: co-IP; told only in the discussion, no figure: cells transfected with either V5-hYSK1 or HA-SP-1; IP with anti-hYSK1 or anti-SP-1
[6] = molecular target: V5-hYSK1 expressed in COS cells (pcDNA3.1-V5-hYSK1) (human) (UniProt O00506); test: co-IP; COS-1 cells transfected with combinations of p16^INK4a, pcDNA3.1-V5-hYSK1 and pcDNA3.1-V5-CDK4; IP with anti-p16^INK4a or anti-hYSK1, blot with anti-V5 or anti-p16^INK4a

Substance: V5-hYSK1 expressed in COS cells (pcDNA3.1-V5-hYSK1) (from UniProt O00506 1-426)
binding [1]: binds
binding [2]: binds
binding (HA-SP-1): no binding

Substance: ^35S-labeled hYSK1 (full length, in vitro translated) (from UniProt O00506 1-426)
binding [4]: binds

Further lines, results first:

binding [3]: binds
Substance: endogenous hYSK1 (from UniProt O00506 1-426)

binding [1]: binds
binding [5]: no binding
Substance: HA-SP-1 (from UniProt P08047 1-785)

binding [6]: binds
Substance: p16^INK4a expressed in COS cells (pcDNA3.1-p16^INK4a) (from UniProt P42771 1-156)
